{"source": "PubChem BioAssay AID588579", "about": "(National Center for Advancing Translational Sciences (NCATS), 2011)", "note": "Several values for one entry are separate records, joined by “and”; a condition that tells them apart may be missing. Identical values can stand only once. The whole screen tested about 400,000 compounds, of which about 2,200 (0.55%) were called active. Inconclusive results (about 1%) are left out. Calls come from the whole dose curve; as a rule, active = well fitted inhibition curve with a large enough effect; inconclusive = small, poorly fitted or top-dose-only effect, or another doubt; inactive = no such curve, though single readings can be large or run the other way. The list shows a part of the results, in another mix than the full data. Some compounds were tested as several samples or in several runs, with calls that do not always agree. Non-standard residues stand in square brackets, D forms with d. Residues, ends and D or L forms follow the SMILES beside them. pGlu = O=C1CC[C@@H](C(=O)O)N1"}
{"target": "DNA polymerase kappa (Homo sapiens) (UniProt Q9UBT6)", "sequence (Q9UBT6 whole entry, looked up)": "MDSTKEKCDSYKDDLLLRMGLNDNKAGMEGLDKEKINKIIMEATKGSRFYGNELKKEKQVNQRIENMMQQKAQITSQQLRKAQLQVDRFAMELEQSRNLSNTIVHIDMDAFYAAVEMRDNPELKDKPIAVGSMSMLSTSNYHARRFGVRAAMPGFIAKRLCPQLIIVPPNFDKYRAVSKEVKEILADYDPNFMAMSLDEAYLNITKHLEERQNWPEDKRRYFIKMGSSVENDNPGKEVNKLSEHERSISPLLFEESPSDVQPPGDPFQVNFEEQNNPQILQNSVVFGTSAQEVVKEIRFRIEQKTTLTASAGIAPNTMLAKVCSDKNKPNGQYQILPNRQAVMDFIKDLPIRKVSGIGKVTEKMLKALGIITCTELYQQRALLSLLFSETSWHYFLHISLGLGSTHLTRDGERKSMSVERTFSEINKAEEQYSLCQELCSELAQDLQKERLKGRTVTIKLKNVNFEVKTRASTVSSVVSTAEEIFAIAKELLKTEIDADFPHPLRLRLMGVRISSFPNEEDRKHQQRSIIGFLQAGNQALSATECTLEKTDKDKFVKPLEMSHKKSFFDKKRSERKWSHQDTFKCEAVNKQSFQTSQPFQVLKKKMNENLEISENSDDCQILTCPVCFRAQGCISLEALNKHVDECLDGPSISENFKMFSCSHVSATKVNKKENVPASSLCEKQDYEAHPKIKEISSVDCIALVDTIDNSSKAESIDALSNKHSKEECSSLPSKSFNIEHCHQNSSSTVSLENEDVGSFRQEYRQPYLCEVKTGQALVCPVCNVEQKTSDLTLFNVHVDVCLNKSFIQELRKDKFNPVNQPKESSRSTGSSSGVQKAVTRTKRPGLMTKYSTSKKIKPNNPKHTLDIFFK", "experiment": "qHTS for Inhibitors of Polymerase Kappa; note: potency is the fitted concentration of half-maximal effect; for activity, negative = inhibition: % is set by controls: 0 for no effect and ±100 for the full control effect", "conditions": "purified Pol kappa, fluorescent DNA synthesis assay, 10 min; series mostly up to 107 µM; activity, negative = inhibition: at the top concentration", "method_in_brief": "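First, compounds were pin-transferred onto 10 nM Pol kappa. After 15 min at room temperature, substrate was added to 50 nM final. Fluorescence was then measured kinetically at 0 and 10 min.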"}
{"molecule": "Cc1ccc(S(=O)(=O)OCC(=O)Nc2ccc(C(=O)O)c(O)c2)cc1", "Potency": "active: 25.1 µM"}
{"molecule": "CCN(CC)c1ccc2nc3ccc(N)cc3[n+](-c3ccccc3)c2c1", "Potency": "active: 22.4 µM"}
{"molecule": "Cc1cccc(N(C)C(=S)Oc2ccc3ccccc3c2)c1", "Potency": "inactive"}
{"molecule": "CN(Cc1cnc2nc(N)nc(N)c2n1)c1ccc(C(=O)NC(CCC(=O)O)C(=O)O)cc1", "note": "(stereo not given)", "Potency": "inactive"}
{"molecule": "c1ccc(-c2ccc(OCCN3CCCC3)cc2)cc1", "activity, negative = inhibition": "inactive: 13.7% [at 60.1 µM]"}
{"molecule": "CC(=O)OCC1=C(C(=O)O)N2C(=O)[C@@H](NC(=O)Cc3ccccc3)[C@H]2SC1", "activity, negative = inhibition": "inactive: 0%"}
{"molecule": "CCOc1ccc(Cc2nccc3cc(OCC)c(OCC)cc23)cc1OCC", "activity, negative = inhibition": "inactive: -19.5% [at 19.4 µM]"}
{"molecule": "COc1ccc(C(CC(=O)N2CCCCC2)c2c(OC)cc(OC)c3ccc(=O)oc23)cc1", "note": "(stereo not given)", "activity, negative = inhibition": "inactive: 1.71%"}
{"molecule": "O=c1c(-c2ccc([N+](=O)[O-])cc2)coc2c(O)c(O)ccc12", "Potency": "active: 7.08 µM"}
{"molecule": "CC(N)=NCc1cccc(CN)c1", "Potency": "inactive"}
{"molecule": "CN1CCCN=C1/C=C/c1cccs1", "activity, negative = inhibition": "inactive: -0.513%"}
{"molecule": "Fc1ccccc1OCCCn1ccnc1", "activity, negative = inhibition": "inactive: 24%"}
{"molecule": "CC/C=C\\C/C=C\\C/C=C\\C/C=C\\C/C=C\\C/C=C\\CCC(=O)O", "activity, negative = inhibition": "inactive: -10.4% [at 19.4 µM] and inactive: -2.07% [at 19.4 µM]"}
{"molecule": "Cc1ccc2nc(/C(C#N)=C/c3ccc(-c4cccc(Cl)c4)o3)[nH]c2c1", "Potency": "active: 50.1 µM"}
{"molecule": "Cc1ccc(Sc2cncc3sc(C(N)=O)cc23)cc1", "activity, negative = inhibition": "inactive: 16.9% [at 60.1 µM]"}
{"molecule": "O=C(O)c1cc(=O)c2ccccc2[nH]1", "Potency": "inactive"}
{"molecule": "O=c1cc(-c2ccc(O)c(O)c2)oc2cccc(O)c12", "Potency": "active: 6.31 µM"}
{"molecule": "O=C(CCCC[C@@H]1SC[C@H]2NC(=O)N[C@H]12)Nc1ccc(C(=O)O)cc1", "activity, negative = inhibition": "inactive: 14.9% [at 60.1 µM]"}
{"molecule": "O=C1C[C@@H](c2ccc(O)c(O)c2)Oc2c1ccc(O[C@@H]1O[C@H](CO)[C@@H](O)[C@H](O)[C@H]1O)c2O", "Potency": "active: 2.67 µM"}
{"molecule": "Oc1ccc(-c2csc(Nc3cccc4ccccc34)n2)cc1O", "Potency": "active: 50.1 µM"}
{"molecule": "COc1cc(/C=N/N2C(=O)CSC2=S)cc(Br)c1O", "Potency": "active: 39.8 µM"}
{"molecule": "O=C(CSc1nc2ccsc2c(=O)n1NC(=O)c1ccccc1)NCc1ccco1", "Potency": "active: 79.4 µM"}
{"molecule": "COc1cc2nc(N3CCCN(C)CC3)nc(NC3CCN(Cc4ccccc4)CC3)c2cc1OC", "Potency": "inactive"}
{"molecule": "O=S(=O)(c1ccc(Cl)cc1)N1CCN(c2nc(-c3cccs3)nc3ccccc23)CC1", "Potency": "inactive"}
{"molecule": "CCCCOC(=O)c1cc2c(cn1)[nH]c1ccccc12", "activity, negative = inhibition": "inactive: 0.0566% [at 19.4 µM] and inactive: 2.68% [at 19.4 µM]"}
{"molecule": "CCOC(=O)c1sc2nc3c(SCC(=O)O)cc(C(=O)c4cc(F)ccc4O)cn3c(=O)c2c1C", "Potency": "active: 50.1 µM"}
{"molecule": "CCOC(=O)c1cc2c(=O)n3ccccc3nc2n(Cc2ccco2)c1=NC(=O)c1ccccc1OC", "activity, negative = inhibition": "inactive: -7.92%"}
{"molecule": "C[C@@H]1CN(c2c(F)c(F)c3c(=O)c(C(=O)O)cn(C4CC4)c3c2F)C[C@H](C)N1", "Potency": "inactive"}
{"molecule": "CC1CCCN(Cc2c(O)ccc3c2O/C(=C\\c2ccco2)C3=O)C1", "note": "(stereo not given)", "Potency": "active: 35.5 µM"}
{"molecule": "CCCCC/C=C\\C/C=C\\C/C=C\\CCCCC(=O)O", "activity, negative = inhibition": "inactive: 6.17% [at 19.4 µM]"}
{"molecule": "COc1ccc(NC(=O)CC2Nc3cccc4cccc(c34)NC2=O)cc1", "note": "(stereo not given)", "activity, negative = inhibition": "inactive: 6.07%"}
{"molecule": "Cc1c(S(=O)(=O)O)oc2c1C(=O)C(=O)c1c-2ccc2c1CCCC2(C)C", "Potency": "active: 35.5 µM"}
{"molecule": "NS(=O)(=O)c1cc2c(cc1C(F)(F)F)N[C@H](Cc1ccccc1)NS2(=O)=O", "activity, negative = inhibition": "inactive: -4.97% [at 12 µM]"}
{"molecule": "N=C1/C(=C\\c2ccc(Br)o2)C(=O)N=C2SC(CC(=O)N3CCCCC3)=NN12", "Potency": "active: 31.6 µM"}
{"molecule": "CCN(CC(=O)Nc1c(F)cccc1F)C(=O)/C=C/c1ccc2ccccc2n1", "Potency": "active: 8.91 µM"}
{"molecule": "CN(C)CCCC1(c2ccc(F)cc2)OCc2cc(C#N)ccc21", "note": "(stereo not given)", "Potency": "inactive"}
{"molecule": "CCCC(CCC)C(=O)O", "Potency": "inactive"}
{"molecule": "O=S1(=O)[C@H]2C[C@@H]3C=C[C@@]2(CN1Cc1ccc(F)cc1)O3", "activity, negative = inhibition": "inactive: 0%"}
{"molecule": "CN(C)CCC(c1ccc(Cl)cc1)c1ccccn1", "note": "(stereo not given)", "Potency": "inactive"}
{"molecule": "H-MSRPACPNDKYE-OH", "activity, negative = inhibition": "inactive: 15.3% [at 60.1 µM]"}
{"molecule": "CC(=O)O[C@H]1Cc2ccccc2N(C(N)=O)c2ccccc21", "Potency": "inactive"}
{"molecule": "CN(Cc1ccccc1)c1ccc(/C=C/c2nc3ccccc3s2)cc1", "Potency": "active: 25.1 µM"}
{"molecule": "N#Cc1ccc(-c2cccnc2)nc1SCC(=O)Nc1sc2c(c1C#N)CCC2", "Potency": "active: 79.4 µM"}
{"molecule": "NC(=O)[C@@H]1CCCN1C(=O)[C@H](Cc1cnc[nH]1)NC(=O)[C@@H]1CCC(=O)N1", "activity, negative = inhibition": "inactive: 2.2% [at 60.1 µM]"}
{"molecule": "COc1ccc(S(=O)(=O)Nc2c(C)n(C)n(-c3ccccc3)c2=O)cc1Br", "activity, negative = inhibition": "inactive: 3.53%"}
{"molecule": "CC(C)(C)NC(=O)[C@@H]1CN(Cc2cccnc2)CCN1C[C@@H](O)C[C@@H](Cc1ccccc1)C(=O)N[C@H]1c2ccccc2C[C@H]1O", "activity, negative = inhibition": "inactive: -8.71%"}
{"molecule": "O=C(O)c1ccccc1Nc1cccc(OCc2ccc3ccccc3n2)c1", "Potency": "inactive"}
{"molecule": "CCCCCCCC/C=C\\CCCCCCCC(=O)O", "activity, negative = inhibition": "inactive: -4.94%"}
{"molecule": "Cn1c(=O)c2c(ncn2C)n(C)c1=O", "Potency": "inactive"}
{"molecule": "Cc1c(Cl)cnc(NC(=O)COC(=O)/C=C/c2ccco2)c1Cl", "Potency": "active: 79.4 µM"}
{"molecule": "Cc1ccc(C)c(NC(=O)CN(C)C(=O)c2cccc(-n3cccc3)c2)c1", "Potency": "active: 39.8 µM"}
{"molecule": "COc1cc(/C=C2\\SC(=Nc3ccc(Cl)c(C(=O)O)c3)NC2=O)c(Br)c(Br)c1O", "Potency": "active: 39.8 µM"}
{"molecule": "O=C(O)c1cc(-c2ccco2)nc2ccc(Br)cc12", "activity, negative = inhibition": "inactive: -5.03%"}
{"molecule": "C=C1CCC2[C@](C)(CO)[C@H](O)CC[C@@]2(C)[C@@H]1/C=C/C1=CCOC1=O", "note": "(stereo not given in full)", "activity, negative = inhibition": "inactive: 0.0271%"}
{"molecule": "COc1ccc(NC=O)c(C(=O)CCNC(C)=O)c1", "activity, negative = inhibition": "inactive: 16.9% [at 60.1 µM]"}
{"molecule": "CCOC(=O)C(C(C)=O)c1c(Br)c(O)c(O)c2c(C(=O)c3ccc(C)cc3)coc12", "note": "(stereo not given)", "Potency": "active: 50.1 µM"}
{"molecule": "Nc1ncc(N=Nc2cc(C(=O)O)ccc2Cl)s1", "Potency": "active: 79.4 µM"}
{"molecule": "Cc1cccc2cc(C(c3nnnn3C(C)(C)C)N(Cc3ccco3)CC3CCCO3)c(=O)[nH]c12", "note": "(stereo not given)", "Potency": "active: 44.7 µM"}
{"molecule": "CC(=O)C[C@H](O)CC(=O)[C@@H]1OC(=O)CCCCCc2ccccc21", "activity, negative = inhibition": "inactive: 2.86%"}
{"molecule": "O=C1CC[C@@H](C(=O)N[C@@H](Cc2cnc[nH]2)C(=O)N[C@@H](Cc2c[nH]c3ccccc23)C(=O)N[C@@H](CO)C(=O)N[C@@H](Cc2ccc(O)cc2)C(=O)O)N1", "note": "([pGlu]HWSY-OH)", "activity, negative = inhibition": "inactive: 18.1% [at 60.1 µM]"}
